Reference: publication PMC12040169 (PLOS Biology, 2025)
The list shows a part of the results.

Each compound was assayed on T1, C. trachomatis L2/434/Bu expressing GFP (CTL2-GFP). Conditions: total inclusion area; 28.5 h, 10 µM; inhibitor.
T1 construct: L2/434/Bu GFP intracellular growth in HeLa cells
Set-up: species or system HeLa; C. trachomatis total inclusion area by high-content imaging, normalised to DMSO
How it was run: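 High-content images of fixed, Hoechst-stained infected cultures supply inclusion area and count (growth) plus nuclei number (viability), complementing bulk GFP/resorufin fluorescence. MIC determination is unchanged from the primary assay.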

| SMILES | % of control remaining |
| --- | --- |
| Nc1ncc(-c2ccc(C(=O)N3CCOCC3)cc2)cc1C(=O)NCCc1ccc(O)cc1 [CBK158577] | 99.3079 |
| CC(C)c1ccc(-c2cncc(NCCCN3CCOCC3)n2)cc1 [CBK065196] | 107.066 |
| FC(F)(F)c1cccc(Nc2cncc(-c3cccs3)n2)c1 [CBK065750] | 104.798 |
| CC(C)(C)c1cc(C(=O)O)[nH]n1 [CBK260874] | 96.1835 |
| COc1ccc2ccccc2c1CN1CCN(C/C=C/c2ccccc2)CC1 [CBK261899] | 77.9012 |
| CCc1nc(CN2CCOC(c3ccc(F)cc3)C2)cs1 (centres unmarked) [CBK305090] | 105.972 |
| CN(C(=O)C1(NC(N)=O)CC1)c1nc2c(s1)CC(c1ccccc1)CC2 (centres unmarked) [CBK306022] | 98.1273 |
| c1ccc(CSc2nnc(-c3ccco3)o2)cc1 [CBK026283] | 125.234 |
| COc1ccc(-c2n[nH]c(=S)n2CC(=O)N2CCN(c3cccc(C)c3)CC2)cc1 [CBK295352] | 120.748 |
| CC(C)n1c(=O)c2c(-c3cc(C(C)(C)C)no3)ncn2c2ccccc21 [CBK016666] | 103.173 |
| Nc1n[nH]c(=O)c2ncn([C@H]3C[C@@H](O)[C@@H](CO)O3)c12 [CBK201233] | 91.1262 |
| O=C(NCc1ccc2c(c1)CCN2C(=O)c1ccncc1)c1cccc(F)c1 [CBK288586] | 116.213 |
| COc1ccc(CNC(=O)NC(=O)C2CCN(S(C)(=O)=O)CC2)c(OC)c1 [CBK034861] | 93.4414 |
| Cc1ccc2nc(-c3ccc(NC(=O)CSc4nc(-c5ccccc5)cc(=O)[nH]4)cc3)sc2c1 [CBK265861] | 132.964 |
| Cc1nc(C)n(CC2CCCN(Cc3cn4ccccc4c3C#N)C2)n1 (centres unmarked) [CBK306103] | 74.1709 |
| CC(=O)N1CCC2(C/C=C/C[C@H]3CN(C(=O)CC4CCOCC4)CC[C@H]3NC(=O)CNC2=O)CC1 [CBK292109] | 109.134 |
| O=C(CSc1nc2cc(Cl)ccc2[nH]1)Nc1ccccc1F [CBK269916] | 75.8288 |
| CCNS(=O)(=O)C1CCN(c2cc(C#N)ccc2C(F)(F)F)C1 (centres unmarked) [CBK305402] | 95.7806 |
| O=S(=O)(Nc1ccc2[nH]ccc2c1)c1c(Cl)cc(C(F)(F)F)cc1Cl [CBK156328] | 89.2467 |
| COc1ccc(CCC(=O)Nc2cccc(OCCC3CCNCC3)c2)cc1OC [CBK138350] | 97.764 |
| O=C(Nc1ccc(Br)cc1C(=O)O)c1ccc2c(c1)C(=O)N(Cc1cccnc1)C2=O [CBK266776] | 95.8326 |
| Cn1c(CN2CCOCC2)nnc1SCC(=O)Nc1cccc(F)c1 [CBK269629] | 95.7846 |
| O=C(NCC(=O)N(c1cccc(C(F)(F)F)c1)C(C(=O)NCc1ccco1)c1ccccc1F)c1ccco1 (centres unmarked) [CBK084740] | 89.7288 |
| COc1ccccc1CN(CC1CCNCC1)C(=O)NC(c1ccccc1)c1ccccc1 [CBK049741] | 90.9734 |
| O=C1c2ccc(Oc3ccc4c(c3)C(=O)N(c3cccnc3)C4=O)cc2C(=O)N1c1cccnc1 [CBK262773] | 96.7871 |
| Cc1nc(C)c(C(=O)Nc2nn(C)c3cccc(N4CCOCC4)c23)o1 [CBK306534] | 70.1495 |

| SMILES | % of control remaining |
| --- | --- |
| O=C(c1cccnc1)C1CCN(C(=O)C2CCCCC2)CC1 [CBK283817] | 102.649 |
| CCOC(=O)C(Cc1ccccc1)C(=O)Nc1ccc(Cl)cc1 (centres unmarked) [CBK261463] | 101.878 |
| COc1ccc2[nH]cc(CC(=O)Nc3nc4c(OC)cccc4s3)c2c1 [CBK149279] | 105.726 |
| CCn1c(SCc2cccnc2)nc2c(c1=O)SC(C)C2 (centres unmarked) [CBK287643] | 98.1881 |
| O=C(c1cnc(-c2ccncc2)s1)N(CC(F)(F)F)C1CCC1 [CBK304119] | 28.0495 |
| Cc1cc(=O)n2c(C(=O)Nc3cccc(C(=O)O)c3)c(C(=O)Nc3cccc(C)c3C)sc2n1 [CBK297545] | 91.0746 |
| CN(C)CCN(C)Cc1ccc2c(c1)Cc1ccccc1-2 [CBK261856] | 99.823 |
| CN(C)CC(=O)N1CCc2nc(-c3ccccc3F)sc2C1 [CBK281918] | 102.828 |
| O=C(O)c1cccc(CSc2nc3ccccc3o2)c1 [CBK270193] | 100.486 |
| C=CCN1C(=O)CC2(C1=O)C(=O)N(Cc1ccc(S(=O)(=O)N(CC)CC)cc1)c1ccc(Cl)cc12 (centres unmarked) [CBK075412] | 72.3911 |
| Cc1cc(C(=O)CSc2nnc(C3CC3)[nH]2)c(C)n1-c1cccc(C(F)(F)F)c1 [CBK295310] | 99.6572 |
| CC(C)c1ccc(C(C)NC(=O)c2cccn(CC(=O)NC3CCCC3)c2=O)cc1 (centres unmarked) [CBK286018] | 117.616 |
| COc1ccc(NS(=O)(=O)c2cc(C(=O)O)c(Cl)cc2Cl)cc1 [CBK095077] | 111.016 |
| CCC(Oc1cccc(Cl)c1)C(=O)NN1CCN(C)CC1 (centres unmarked) [CBK268135] | 95.8702 |
| N#CCCN(C1CCCCC1)S(=O)(=O)c1ccc(-c2ccc([N+](=O)[O-])cc2)cc1 [CBK261382] | 87.4778 |
| COc1ccc2[nH]cc(CCNC(=O)N(C)C3CCN(C)C3)c2c1 (centres unmarked) [CBK156004] | 89.0917 |
| COc1ccc(OC)c(-c2cc(C(=O)O)c(C)o2)c1 [CBK049343] | 67.2771 |
| CC1(C)OCC2(CCN(C(C)(C)C)CC2)O1 [CBK038298] | 74.12 |
| Cc1ccc(OCc2nnc(SCC(=O)c3cccc([N+](=O)[O-])c3)n2C)cc1 [CBK268580] | 117.146 |
| COc1ccc(Cn2c(=O)[nH]n(-c3ccccc3)c2=O)cc1F [CBK122772] | 104.617 |
| O=C(Nc1cccc2cccnc12)c1cccc2ccccc12 [CBK261473] | 78.7778 |
| FC(F)(F)c1cccc(OCc2ccc(-c3ccccc3)cc2)n1 [CBK115836] | 106.666 |
| O=C1N[C@H]2CCCN(C(=O)Cn3cccnc3=O)[C@H]2CCCCCOc2ccccc21 [CBK292096] | 132.393 |
| COc1ccc(-c2ccc(/C=N/N=C3\NC(=O)C(CC(=O)O)S3)o2)c([N+](=O)[O-])c1 (centres unmarked) [CBK264516] | 98.1116 |
| c1ccc2c(Sc3cc(N4CCCC4)ncn3)cccc2c1 [CBK089538] | 105.921 |
| CNC(=O)CSc1nc2ccccc2nc1NC(C)C [CBK107171] | 110.68 |

| SMILES | % of control remaining |
| --- | --- |
| O=C(O)CN1C(=O)c2ccc(C(=O)c3ccc4c(c3)C(=O)N(CC(=O)O)C4=O)cc2C1=O [CBK262166] | 98.8028 |
| O=C(c1ccc(-c2cnc3[nH]c(=O)n(Cc4ccccn4)c3n2)cc1)N1CCOCC1 [CBK064413] | 93.5769 |
| CC(=O)Nc1cccc(NC(=O)N2CCCC(CO)C2)c1 (centres unmarked) [CBK156049] | 93.2521 |
| Cc1nn(C)c(N2CCNCC2)c1NC(=O)Cc1c[nH]c2ccccc12 [CBK050256T] | 100.498 |
| O=C(N/N=C/c1ccc(N2N=C(c3ccc(Cl)cc3)CC2c2ccc(Cl)cc2)cc1)c1cccnc1 (centres unmarked) [CBK262494] | 59.9325 |
| C=CCC(NCc1ccccc1)c1ccc(C(=O)O)o1 (centres unmarked) [CBK286591] | 62.3483 |
| O=C(Cc1ccccc1[N+](=O)[O-])Nc1ccc(S(=O)(=O)N2CCCC2)cc1 [CBK265292] | 93.3976 |
| CCn1cc(CN2CCC(c3cc(Cc4cccc(OC)c4)cc(C)n3)CC2)c(C)n1 [CBK285671] | 87.569 |
| CC(C)(C)OC(=O)NNC(=S)Nc1ccc(S(N)(=O)=O)cc1 [CBK267107] | 122.887 |
| CCOC(=O)c1ccc(-n2c(CCC(=O)O)ccc2-c2ccc(F)cc2)cc1O [CBK266010] | 132.557 |
| COc1nccnc1-c1cc2ccccc2s1 [CBK106781] | 116.658 |
| CN1C[C@@H](NC(=O)Nc2ccccc2)C[C@H]1c1nc(-c2cnccn2)no1 [CBK288851] | 116.534 |
| O=C(Nc1ccc2[nH]ccc2c1)c1c(F)cccc1F [CBK144711] | 105.722 |
| CS(=O)(=O)c1ccc(-c2ccc3c(n2)CCN(C2CCN(C(=O)OCc4ccccc4)CC2)C3)cc1 [CBK169530] | 69.6718 |
| c1coc(-c2cc(NC3CCCCC3)ncn2)c1 [CBK090901] | 89.1361 |
| COc1cncc(-c2cccc(NCC(c3cccnc3)N(C)C)n2)c1 (centres unmarked) [CBK037741] | 122.202 |
| Cc1cc(N(C)C)cc(C2CCCN(C(=O)c3cccc(F)c3)C2)n1 (centres unmarked) [CBK282003] | 106.811 |
| COC1=CC2CCNC(CCCCC3NCCc4cc(OC)c(OC)cc43)C2C=C1OC (centres unmarked) [CBK013354] | 63.4182 |
| COc1ccc(CCC(=O)Nc2ncccc2OCCCC#N)cc1 [CBK304957] | 54.4014 |
| Cc1ccc(C(=O)COC(=O)c2cc(O)nc3ccccc23)cc1[N+](=O)[O-] [CBK264085] | 101.559 |
| CCN(CC)C(=O)C1CCN(S(=O)(=O)c2ccc(C)cc2)CC1 [CBK157834] | 100.295 |
| CCOC(=O)C1CCCN(C(=O)Cn2ccc3sccc3c2=O)C1 (centres unmarked) [CBK304099] | 105.245 |
| Cn1ccc(C(=O)NCc2cccnc2OCC(F)(F)F)cc1=O [CBK305574] | 41.1318 |
| Cc1cc(N2C(=O)c3oc4ccccc4c(=O)c3C2c2ccncc2)no1 (centres unmarked) [CBK287780] | 54.5121 |
| O=C(Cc1c[nH]c2ccccc12)N1CCC2(CCCN(C(=O)c3cscn3)C2)C1 (centres unmarked) [CBK131590] | 91.4299 |
